# Results: publication PMC5892938
# This is one part of the list. At the low end of the ranking the order means little.
# Biological target: GST-SBP-SLBP (stem-loop binding protein) (UniProt Q14493)
# Assay: targeted RNA Bind-n-Seq;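 further: DESeq read counts versus GST-SBP nonspecific binding control pulldown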
# Details: RBNS binding buffer: 25 mM Tris pH 7.5, 150 mM KCl, 3 mM MgCl2, 0.1% Tween, 0.5 mg/mL BSA, 1 mM DTT; 27 nM protein, 750 pM RNA pool; temperature not stated; high values mean tight binding
row,Sequence,binding signal (log2 fold change)
1,GGUCACGUCUCAAUCAACUCUUUAGAGGGGGGGAAAACCCCUUUGCCCUCACCGUCAACAGCUCGCAGUCAAG,-0.311
2,GGUCACGUCUCAAUCAACUCUUACGAGGGGGGGAAAACCCCUUUACCCUCUCAAUCAACAGCUCGCAGUCAAG,-0.0643
3,GGUCACGUCUCAAUCAACUCCCUGGAGGGGGGGAAAACCCCUUUACCCUCAUAUUCAACAGCUCGCAGUCAAG,-0.118
4,GGUCACGUCUCAAUCAACUCAAUUUCAGGAGUUUACUCCUGUAUACUCAACAGCUCGCAGUCAAG,-0.00414
5,GGUCACGUCUCAAUCAACUCUUUCCCCAGGGAAAACCCUGGCAUACUCAACAGCUCGCAGUCAAG,-0.0541
6,GGUCACGUCUCAAUCAACUCAACUCCAGGAGUUUCCUCCUGUUAUUUCAACAGCUCGCAGUCAAG,-0.12
7,GGUCACGUCUCAAUCAACUCAAUCGAGGGGGGGAAAACCCCUUUACCCUCUUCAUCAACAGCUCGCAGUCAAG,0.277
8,GGUCACGUCUCAAUCAACUCUUUUCCCAGGGAAAGCCCUGGCAUUUUCAACAGCUCGCAGUCAAG,-0.0609
9,GGUCACGUCUCAAUCAACUCAUCCUCCAGGGAAAACCCUGGUAUAUUCAACAGCUCGCAGUCAAG,0.00412
10,GGUCACGUCUCAAUCAACUCUUUCUCCAGGGAAAACCCUGGUAAUUUCAACAGCUCGCAGUCAAG,-0.0355
11,GGUCACGUCUCAAUCAACUCCUAAGAGGGGGGGAAAACCCCUUUACCCUCAAACUCAACAGCUCGCAGUCAAG,-0.114
12,GGUCACGUCUCAAUCAACUCAAGUCCAGGAGUUUUCUCCUGUUAUCUCAACAGCUCGCAGUCAAG,0.00716
13,GGUCACGUCUCAAUCAACUCAGUCUCCAGGGAAAGCCCUGGUAAAUUCAACAGCUCGCAGUCAAG,-0.267
14,GGUCACGUCUCAAUCAACUCAACUUCCAGGGAAAGCCCUGGUAUUUUCAACAGCUCGCAGUCAAG,-0.0671
15,GGUCACGUCUCAAUCAACUCGUCUUCAGGAGUUUACUCCUGCAAAUUCAACAGCUCGCAGUCAAG,-0.0447
16,GGUCACGUCUCAAUCAACUCAACUCCAGGAGUUUUCUCCUGUUUAUUCAACAGCUCGCAGUCAAG,0.0125
17,GGUCACGUCUCAAUCAACUCCCAAGAGGGGGGGAAAACCCCUUUGCCCUCAAUUUCAACAGCUCGCAGUCAAG,-0.0635
18,GGUCACGUCUCAAUCAACUCAUUCUCCAGGGAAACCCCUGGUAAUCUCAACAGCUCGCAGUCAAG,-0.0201
19,GGUCACGUCUCAAUCAACUCAAUCCCAGGAGUUUACUCCUGUAUAGUCAACAGCUCGCAGUCAAG,0.0751

row,Sequence,binding signal (log2 fold change)
1,GGUCACGUCUCAAUCAACUCUAAUGAGGGGGGGAAAACCCCUUUACCCUCCAAUUCAACAGCUCGCAGUCAAG,-0.304
2,GGUCACGUCUCAAUCAACUCAAUUCCCAGGGAAACCCCUGGUAUUUUCAACAGCUCGCAGUCAAG,-0.267
3,GGUCACGUCUCAAUCAACUCAAAAGAGGGGGGGAAAACCCCUUUGCCCUCGGAAUCAACAGCUCGCAGUCAAG,0.218
4,GGUCACGUCUCAAUCAACUCUUCUUCCAGGGAAAGCCCUGGCAUGUUCAACAGCUCGCAGUCAAG,0.213
5,GGUCACGUCUCAAUCAACUCAACUCCAGGAGUUUACUCCUGUUUACUCAACAGCUCGCAGUCAAG,-0.063
6,GGUCACGUCUCAAUCAACUCAUCUCCAGGAGUUUGCUCCUGUAUUUUCAACAGCUCGCAGUCAAG,-0.0825
7,GGUCACGUCUCAAUCAACUCAUUUUCCAGGGAAACCCCUGGCUAAUUCAACAGCUCGCAGUCAAG,0.348
8,GGUCACGUCUCAAUCAACUCUUCCUCCAGGGAAACCCCUGGCUAAUUCAACAGCUCGCAGUCAAG,0.0942
9,GGUCACGUCUCAAUCAACUCUUCUUCCAGGGAAACCCCUGGCAUGUUCAACAGCUCGCAGUCAAG,-0.0424
10,GGUCACGUCUCAAUCAACUCAUUCUCAGGAGUUUUCUCCUGCAAAGUCAACAGCUCGCAGUCAAG,0.0273
11,GGUCACGUCUCAAUCAACUCAUUCCCAGGAGUUUCCUCCUGUUUUUUCAACAGCUCGCAGUCAAG,-0.181
12,GGUCACGUCUCAAUCAACUCUUUUUCCAGGGAAAGCCCUGGUUUAUUCAACAGCUCGCAGUCAAG,-0.295
13,GGUCACGUCUCAAUCAACUCAAUUCCCAGGGAAAUCCCUGGCAUAUUCAACAGCUCGCAGUCAAG,0.139
14,GGUCACGUCUCAAUCAACUCAAUCUCCAGGGAAAGCCCUGGCAAUGUCAACAGCUCGCAGUCAAG,0.309
15,GGUCACGUCUCAAUCAACUCAUCUUCAGGAGUUUGCUCCUGCUUAUUCAACAGCUCGCAGUCAAG,0.141
16,GGUCACGUCUCAAUCAACUCUUUUCCCAGGGAAAACCCUGGUUAACUCAACAGCUCGCAGUCAAG,0.0544
17,GGUCACGUCUCAAUCAACUCAUCUUCCAGGGAAAACCCUGGUUAUUUCAACAGCUCGCAGUCAAG,0.148
18,GGUCACGUCUCAAUCAACUCAGAAGAGGGGGGGAAAACCCCUUUACCCUCAACAUCAACAGCUCGCAGUCAAG,-0.055
